Source: PubChem BioAssay AID1745845 (National Center for Advancing Translational Sciences (NCATS), 2022)
About 2,600 (0.72%) of roughly 360,000 compounds were called active. This list was built around the results that the source calls inconclusive (neither active nor inactive); the mix of calls is not that of the screen. The call rests on the fitted dose curve; in most records, active means well fitted inhibition curve with a large enough effect; inconclusive means small, poorly fitted or top-dose-only effect; inactive means no such curve, though single readings can be large or run the other way. Potencies beside an inconclusive call are fits to weak or partial responses and may not hold up.

Experiment: Primary qHTS for Inhibitors of ATXN expression; further: nearly all actives have a fitted effect of over 55% in size
Settings: HEK-293 ATXN2-luciferase reporter, luminescence, 24 h; activity change, negative = inhibition: at 57 µM (top of the series)
Method in brief: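 qHTS (up to 57 uM final) was run with 24 h compound exposure of reporter cells at 37 °C. Each well was multiplexed: SteadyGlo luminescence measured ATXN2-luciferase expression after a fluorogenic Gly-Phe-AFC viability readout (25 uM final).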
On the % scale 0 is the no-effect control and ±100 the full control effect; potency means the concentration at half of the fitted maximal effect; tags describe the fitted curve by direction and shape.

| Structure (SMILES) | Potency | activity change, negative = inhibition |
| --- | --- | --- |
| COc1ccc2cc3cc(C(=O)Nc4ccc5c(c4)OCO5)oc3nc2c1 | inconclusive: 35.5 µM [inhibitor, single point] |  |
| Cc1ccc2nsnc2c1NC(=O)c1sc2ccccc2c1Cl | inconclusive: 11.2 µM [inhibitor, partial curve, poor fit] |  |
| CCCCN(CCCNC(=O)c1cc(Nc2ccc(OC)c(OC)c2)nc2ccccc12)Cc1ccccc1 | inconclusive: 31.6 µM [inhibitor, single point] |  |
| COc1ccc(S(=O)(=O)NCCc2csc(-c3ccc(F)cc3)n2)cc1F | inconclusive: 11.2 µM [inhibitor, partial curve, poor fit] |  |
| CCN(CC)c1ccc(C(=C2C=CC(=[N+](CC)CC)C=C2)c2ccc(S(=O)(=O)O)cc2S(=O)(=O)[O-])cc1 | inconclusive: 17.8 µM [inhibitor, partial curve, poor fit] |  |
| COc1cc(Oc2ccnc3cc(OC)c(OC)cc23)ccc1NC(=O)NC(C)c1nccs1 (stereo unspecified) | inconclusive: 24.3 µM [inhibitor, partial curve] |  |
| CCc1cccc(C)c1NC(=S)NCc1ccc2c(c1)cc(C)n2C | inconclusive: 39.8 µM [inhibitor, single point] |  |
| Cn1c(Nc2ccc(C(F)(F)F)cc2)nc2cc(Oc3ccnc(-c4ncc(C(F)(F)F)[nH]4)c3)ccc21 |  | inactive: -19% |
| Cc1cc(C)cc(NS(=O)(=O)c2ccc3c(c2)c(=O)n(C)c(=O)n3C)c1 | inconclusive: 8.91 µM [inhibitor, partial curve, poor fit] |  |
| C=C(C)CNC(=S)N/N=C\c1ccc2c(c1)OCO2 | inconclusive: 39.8 µM [inhibitor, single point] |  |
| CC1(C)CC2(C)OC(=N)C1(C#N)C2(C#N)C#N (stereo unspecified) | inconclusive: 33.6 µM [inhibitor, single point] |  |
| CN(C)CCOc1ccc(-c2c(-c3ccsc3)sc3ccccc23)cc1 | inconclusive: 31.6 µM [inhibitor, single point] |  |
| O=C(Nc1ccc(S(=O)(=O)N2C[C@@H]3C[C@@H](C2)c2cccc(=O)n2C3)cc1)c1ccc(F)cc1 |  | inactive: 1.43% |
| CS(=O)(=O)N(CC(O)Cn1c2ccccc2c2ccccc21)c1cccc2ccccc12 (stereo unspecified) | inconclusive: 35.5 µM [inhibitor, single point] |  |
| Cc1cccn2c(=O)c3cc(S(=O)(=O)c4ccc(F)cc4)c(=N)n(Cc4ccco4)c3nc12 |  | inactive: 0.798% |
| O=c1nc2n(-c3ccccc3F)c3ccccc3cc-2c(=O)[nH]1 |  | inactive: 7.94% |
| O=CNc1cc(-c2ccccc2Oc2ccccc2)cn2c(-c3ccc(F)cc3)cnc12 | inconclusive: 28.2 µM [inhibitor, partial curve, poor fit] |  |
| N#C[C@H]1C[C@H]2C[C@@H]2N1C(=O)[C@@H](N)C12CC3CC(CC(O)(C3)C1)C2 | inconclusive: 14.1 µM [inhibitor, partial curve, poor fit] |  |
| CCC(=O)Nc1nnc(C(C)(C)C)s1 |  | inactive: 6.11% |
| CC1(C)CC(Cc2ccc(C(=O)c3ccccc3)cc2)N(C(=O)OC(C)(C)C)N1 (stereo unspecified) | inconclusive: 31.6 µM [inhibitor, partial curve] |  |
| Cc1cccc(Cn2c(N3CCN(c4ccccc4)CC3)nc3c2c(=O)n(C)c(=O)n3C)c1 | inconclusive: 39.8 µM [inhibitor, single point] |  |

| Structure (SMILES) | Potency | activity change, negative = inhibition |
| --- | --- | --- |
| COC(=O)C1=C(C)NC(C)=C(C(=O)OC(C)C)C1c1cccc2nonc12 (stereo unspecified) | inconclusive: 0.485 µM [inhibitor, partial curve] |  |
| CC(/C=N/n1c(-c2ccco2)n[nH]c1=S)=C\c1ccccc1 |  | inactive: -1.85% |
| C[C@@H]1C[C@@H]2O[C@H]2/C=C\C=C\C(=O)Cc2c(Cl)c(O)cc(O)c2C(=O)O1 | active: 4.74 µM |  |
| CN(C)CCCNC(=O)c1ccc(-c2nc(-c3ccc(Cl)cc3)cs2)cc1 | inconclusive: 39.8 µM [inhibitor, single point] |  |
| CN1CC(c2ccccc2)Oc2ccccc2C1=S (stereo unspecified) | inconclusive: 0.0119 µM [inhibitor, full curve, poor fit] |  |
| Cc1cccc(-c2nnc(C3CCN(S(=O)(=O)c4cccc(Cl)c4)CC3)o2)c1 | active: 1.58 µM |  |
| COc1cc(C[C@@H](C)[C@@H](C)Cc2ccc(O)c(OC)c2)ccc1O | inconclusive: 39.8 µM [inhibitor, single point] |  |
| Cc1ccc(Cl)cc1N1CCN(C(=O)c2ccc(CS(=O)(=O)c3ccccc3C)o2)CC1 | inconclusive: 39.8 µM [inhibitor, single point] |  |
| CC(=O)SCC(Cc1ccccc1)C(=O)NCC(=O)OCc1ccccc1 (stereo unspecified) | inconclusive: 38.5 µM [inhibitor, single point] |  |
| OC(COc1ccc2cc(Br)ccc2c1)CN1CCCC1 (stereo unspecified) | inconclusive: 39.8 µM [inhibitor, single point] |  |
| O=C(CSc1nnc(-c2ccncc2)s1)Nc1ccccc1 |  | inactive: 1.26% |
| O=[N+]([O-])c1ccc(Nc2nc(N/N=C\c3ccc4c(c3)OCO4)nc(N3CCCCC3)n2)cc1 |  | inactive: -2.23% |
| CCOc1ccc(-n2nc3ccc(NC(=O)c4ccc5c(c4)OCCO5)cc3n2)cc1 | inconclusive: 15.8 µM [inhibitor, partial curve] |  |
| OC(COc1ccc(CNCCc2ccc(C(F)(F)F)cc2)cc1)CN1CCCCC1 (stereo unspecified) | inconclusive: 1.89 µM [inhibitor, full curve, poor fit] |  |
| COC(=O)[C@]12CCCCC=C1N(Cc1ccc(Cl)cc1Cl)C(=O)[C@H](CC(=O)NCCc1ccccc1OC)C2 | inconclusive: 39.8 µM [inhibitor, single point] |  |
| COC1=C(Nc2ccccc2)C(=O)C(OC)=C(Nc2ccccc2)C1=O |  | inactive: 1.13% |
| CC(C)(C)[C@H](N)C(=O)N[C@H]1CCC2C3CC=C4C[C@@H](O)CC[C@]4(C)C3CC[C@@]21C (stereo partly specified) | inconclusive: 37.7 µM [inhibitor, single point] |  |
| OC(CNC1Cc2ccccc2C1)c1ccccc1 (stereo unspecified) |  | inactive: -12.8% |
| O=C(CCCl)Nc1nc2c(s1)CCc1ccccc1-2 |  | inconclusive: -53.6% [inhibitor] |
| COc1cccc(Nc2nc(-c3sc(N)nc3C)cs2)c1 |  | inactive: 37.1% |
